Source: publication PMC12820563
This is one part of the list. The list includes weakly bound sequences.

biological target: T1, MBP-FoxP3dN (UniProt Q99JB6); test: PD-seq (MBP pull-down with sequencing); settings: 20 mM Tris-HCl pH 7.5, 100 mM NaCl, 1.5 mM MgCl2, 0.4 uM protein, 0.1 uM dsDNA library, 30 min, room temperature, amylose pull-down; high values mean tight binding; double strand, one strand shown
T1 sequence: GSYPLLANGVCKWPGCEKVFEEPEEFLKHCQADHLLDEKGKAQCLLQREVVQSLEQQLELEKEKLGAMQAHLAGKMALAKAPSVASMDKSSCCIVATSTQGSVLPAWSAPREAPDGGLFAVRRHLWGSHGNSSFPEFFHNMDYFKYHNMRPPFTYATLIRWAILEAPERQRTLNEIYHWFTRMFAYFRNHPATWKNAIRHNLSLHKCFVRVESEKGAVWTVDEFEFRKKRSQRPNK

Row | Sequence | binding signal (RPM ratio (pull-down/input))
1 | GATGATTGTTCTCCCAGCTGATGAATTGTGGCGTTCGAGTAAACAAATTTTCCTAATCTTTCTGTTCAAGCGCCATCTAC | 2.54
2 | GATGATTGTTCTCCCAGCTGATGAATTGACGGCGTCGAGTAAACAAATTTTCCTAATCTTTCTGTTCAAGCGCCATCTAC | 0.508
3 | GATGATTGTTCTCCCAGCTGATGAATTATCACACTCGAGTAAACAAATTTTCCTAATCTTTCTGTTCAAGCGCCATCTAC | 0.454
4 | GATGATTGTTCTCCCAGCTGATGAATTAATGCCGTCGAGTAAACAAATTTTCCTAATCTTTCTGTTCAAGCGCCATCTAC | 1.5
5 | GATGATTGTTCTCCCAGCTGATGAATTGCTACACTCGAGTAAACAAATTTTCCTAATCTTTCTGTTCAAGCGCCATCTAC | 0.867
6 | GATGATTGTTCTCCCAGCTGATGAATTCCCTCTCTCGAGTAAACAAATTTTCCTAATCTTTCTGTTCAAGCGCCATCTAC | 0.275
7 | GATGATTGTTCTCCCAGCTGATGAATTCCAACGCTCGAGTAAACAAATTTTCCTAATCTTTCTGTTCAAGCGCCATCTAC | 0.274
8 | GATGATTGTTCTCCCAGCTGATGAATTCGCTCAGTCGAGTAAACAAATTTTCCTAATCTTTCTGTTCAAGCGCCATCTAC | 0.239
9 | GATGATTGTTCTCCCAGCTGATGAATTCAATGGATCGAGTAAACAAATTTTCCTAATCTTTCTGTTCAAGCGCCATCTAC | 0.339
10 | GATGATTGTTCTCCCAGCTGATGAATTACGGATCTCGAGTAAACAAATTTTCCTAATCTTTCTGTTCAAGCGCCATCTAC | 0.4
11 | GATGATTGTTCTCCCAGCTGATGAATTTACGAAGTCGAGTAAACAAATTTTCCTAATCTTTCTGTTCAAGCGCCATCTAC | 0.237
12 | GATGATTGTTCTCCCAGCTGATGAATTCTATAGCTCGAGTAAACAAATTTTCCTAATCTTTCTGTTCAAGCGCCATCTAC | 0.43
13 | GATGATTGTTCTCCCAGCTGATGAATTAGAAACTTCGAGTAAACAAATTTTCCTAATCTTTCTGTTCAAGCGCCATCTAC | 0.269
14 | GATGATTGTTCTCCCAGCTGATGAATTGGCGCGCTCGAGTAAACAAATTTTCCTAATCTTTCTGTTCAAGCGCCATCTAC | 0.572
15 | GATGATTGTTCTCCCAGCTGATGAATTGGAAGAGTCGAGTAAACAAATTTTCCTAATCTTTCTGTTCAAGCGCCATCTAC | 0.198
16 | GATGATTGTTCTCCCAGCTGATGAATTCTTGAGGTCGAGTAAACAAATTTTCCTAATCTTTCTGTTCAAGCGCCATCTAC | 0.202
17 | GATGATTGTTCTCCCAGCTGATGAATTACGGGATTCGAGTAAACAAATTTTCCTAATCTTTCTGTTCAAGCGCCATCTAC | 0.408
18 | GATGATTGTTCTCCCAGCTGATGAATTCGCATATTCGAGTAAACAAATTTTCCTAATCTTTCTGTTCAAGCGCCATCTAC | 0.993
19 | GATGATTGTTCTCCCAGCTGATGAATTGCGACATTCGAGTAAACAAATTTTCCTAATCTTTCTGTTCAAGCGCCATCTAC | 2.23
20 | GATGATTGTTCTCCCAGCTGATGAATTGTGGAACTCGAGTAAACAAATTTTCCTAATCTTTCTGTTCAAGCGCCATCTAC | 0.358

Row | Sequence | binding signal (RPM ratio (pull-down/input))
21 | GATGATTGTTCTCCCAGCTGATGAATTGCCCAATTCGAGTAAACAAATTTTCCTAATCTTTCTGTTCAAGCGCCATCTAC | 0.463
22 | GATGATTGTTCTCCCAGCTGATGAATTGGACACCTCGAGTAAACAAATTTTCCTAATCTTTCTGTTCAAGCGCCATCTAC | 0.398
23 | GATGATTGTTCTCCCAGCTGATGAATTACTAAGCTCGAGTAAACAAATTTTCCTAATCTTTCTGTTCAAGCGCCATCTAC | 0.286
24 | GATGATTGTTCTCCCAGCTGATGAATTGACGTGATCGAGTAAACAAATTTTCCTAATCTTTCTGTTCAAGCGCCATCTAC | 0.492
25 | GATGATTGTTCTCCCAGCTGATGAATTATATCGGTCGAGTAAACAAATTTTCCTAATCTTTCTGTTCAAGCGCCATCTAC | 0.388
26 | GATGATTGTTCTCCCAGCTGATGAATTGAAGGAGTCGAGTAAACAAATTTTCCTAATCTTTCTGTTCAAGCGCCATCTAC | 0.239
27 | GATGATTGTTCTCCCAGCTGATGAATTTTGGAGTTCGAGTAAACAAATTTTCCTAATCTTTCTGTTCAAGCGCCATCTAC | 0.442
28 | GATGATTGTTCTCCCAGCTGATGAATTACGCGCCTCGAGTAAACAAATTTTCCTAATCTTTCTGTTCAAGCGCCATCTAC | 1.67
29 | GATGATTGTTCTCCCAGCTGATGAATTGCCGTAGTCGAGTAAACAAATTTTCCTAATCTTTCTGTTCAAGCGCCATCTAC | 0.585
30 | GATGATTGTTCTCCCAGCTGATGAATTTTCACAGTCGAGTAAACAAATTTTCCTAATCTTTCTGTTCAAGCGCCATCTAC | 0.202
31 | GATGATTGTTCTCCCAGCTGATGAATTTTCATGGTCGAGTAAACAAATTTTCCTAATCTTTCTGTTCAAGCGCCATCTAC | 0.294
32 | GATGATTGTTCTCCCAGCTGATGAATTCCTCTTATCGAGTAAACAAATTTTCCTAATCTTTCTGTTCAAGCGCCATCTAC | 0.344
33 | GATGATTGTTCTCCCAGCTGATGAATTCCTACTGTCGAGTAAACAAATTTTCCTAATCTTTCTGTTCAAGCGCCATCTAC | 0.307
34 | GATGATTGTTCTCCCAGCTGATGAATTTGTTATATCGAGTAAACAAATTTTCCTAATCTTTCTGTTCAAGCGCCATCTAC | 5.26
35 | GATGATTGTTCTCCCAGCTGATGAATTACCGAAATCGAGTAAACAAATTTTCCTAATCTTTCTGTTCAAGCGCCATCTAC | 0.328
36 | GATGATTGTTCTCCCAGCTGATGAATTACCGAGCTCGAGTAAACAAATTTTCCTAATCTTTCTGTTCAAGCGCCATCTAC | 0.272
37 | GATGATTGTTCTCCCAGCTGATGAATTGTAACGTTCGAGTAAACAAATTTTCCTAATCTTTCTGTTCAAGCGCCATCTAC | 0.707
38 | GATGATTGTTCTCCCAGCTGATGAATTCCCGAAGTCGAGTAAACAAATTTTCCTAATCTTTCTGTTCAAGCGCCATCTAC | 0.149
39 | GATGATTGTTCTCCCAGCTGATGAATTGACCATCTCGAGTAAACAAATTTTCCTAATCTTTCTGTTCAAGCGCCATCTAC | 0.424
40 | GATGATTGTTCTCCCAGCTGATGAATTTAGCGCATCGAGTAAACAAATTTTCCTAATCTTTCTGTTCAAGCGCCATCTAC | 1.5
